# Data from PubChem BioAssay AID686970 (National Center for Advancing Translational Sciences (NCATS), 2013).
# The campaign covered roughly 360,000 compounds. About 6,000 (1.7%) were called active. This list was built around the results that the source calls inconclusive (neither active nor inactive); the mix of calls is not that of the screen. Calls come from the whole dose curve; as a rule, active = well fitted cell-killing curve with a large enough effect; inconclusive = small, poorly fitted or top-dose-only effect, or effect the other way; inactive = flat fitted curve, though single readings scatter. No potency is given beside an inconclusive call; the fits are too rough.
# Test: qHTS for induction of synthetic lethality in tumor cells producing 2HG: qHTS for the HT-1080-NT fibrosarcoma cell line;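 note: NT is the 2HG producing partner of a matched IDH1 knockdown line; nearly all actives have a fitted effect of over 55% in size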;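 for activity, negative = less viability: 0% = DMSO-treated cells and -100% = media-only wells without cells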
# Conditions: HT-1080-NT fibrosarcoma viability, CellTiter-Glo ATP luminescence, 48 h; activity, negative = less viability: at 46.1 µM (top of the series) unless noted
# In short: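 750 cells/well, RPMI + 5% FBS; 2 h settle, compound pin-transfer, 48 h at 37 degrees C. CellTiter-Glo 10 min RT, luminescence. Normalized to DMSO and media-only wells.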
# Potency is the fitted concentration of half-maximal effect; tags give direction and shape of the fitted curve.
SMILES,Potency,"activity, negative = less viability"
COc1cc2c(Cc3ccccc3)cncc2cc1O,"inconclusive [cytotoxic, single point]",–
Cc1ccc(F)c([C@H]2C3C=CCC(c4ccccc4)C3C(=O)N2Cc2ccccc2)c1 (stereo partly specified),"inconclusive [cytotoxic, single point]",–
CSCCC(NC(=O)c1ccccc1Cl)C(=O)N1CCN(C(c2ccccc2)c2ccccc2)CC1 (stereo unspecified),–,inactive: -3.17%
O=C(C[C@H]1C/C=C\C[C@H](NC(=O)OCC2c3ccccc3-c3ccccc32)C(=O)O[C@H](c2ccccc2)CNC1=O)N[C@H](CO)Cc1ccccc1,active: 11.6 µM,–
CCN(CC)c1ccc(/C=C/c2ccc3ccc(OC)cc3[n+]2CC)cc1,"inconclusive [cytotoxic, partial curve]",–
O=C(CNC(=O)C1COc2ccccc2O1)N/N=C\c1ccc(Br)cc1 (stereo unspecified),–,inactive: 0.031%
O=S(=O)(Nc1cccnc1Cl)c1ccc2c(c1)OCCO2,"inconclusive [cytotoxic, full curve]",–
Cc1ccc(S(=O)(=O)N2CCC(c3nc4c(nnn4Cc4ccccc4)c(=O)[nH]3)CC2)cc1,"inconclusive [cytotoxic, single point]",–
COc1cc(F)ccc1-c1csc(C(C)(O)c2ccccc2)n1 (stereo unspecified),"inconclusive [cytotoxic, partial curve]",–
O=C(Cc1ccc(Cl)cc1)NCCS(=O)(=O)N1CCN(c2ccccc2F)CC1,"inconclusive [cytotoxic, single point]",–
S=c1sc2c(Cl)ncnc2n1-c1ccccc1,active: 20.6 µM,–
CC(C)(C)CC(C)(C)c1ccc(O)c(Cc2ccc(Cl)cc2Cl)c1,active: 3.66 µM,–
O=C(CNc1cccc2ccccc12)N/N=C/C(Br)=C/c1ccccc1,"inconclusive [cytotoxic, single point]",–
N#Cc1c(N)nc2c3c(sc(=N)c2c1N)NC(=O)CC3c1ccccc1Cl (stereo unspecified),"inconclusive [cytotoxic, partial curve]",–
Cc1cccc(-c2nnc(SCC(=O)C(C)(C)C)n2C)c1,"inconclusive [rising, partial curve]",–
CCOC(=S)NC(=O)c1sc2ccccc2c1Cl,"inconclusive [cytotoxic, single point]",–
COc1cccc(C(O)c2nc(-c3ccc4ccccc4c3)cs2)c1 (stereo unspecified),"inconclusive [cytotoxic, single point]",–
CC(=O)C(=Cc1cccc(C#N)c1)C(=O)c1ccccc1,"inconclusive [cytotoxic, single point]",–
CCOC(=O)C1CCN(C(=O)Cn2nc(C)n3cccc3c2=O)CC1,–,inactive: 5.51%
Cc1cc(C)nc(SC2=CS(=O)(=O)c3ccccc32)n1,active: 23.1 µM,–
CCN(c1ccccc1)S(=O)(=O)c1cc(C(=O)NCC(c2ccc(OC)cc2)N(C)C)ccc1C (stereo unspecified),"inconclusive [cytotoxic, single point]",–
C/C=C/COC(=O)c1[nH]c2c(c1C)C(=O)CC(c1ccco1)C2 (stereo unspecified),active: 1.03 µM,–
N#CCCN(C(=O)COC(=O)c1ccc(CNS(=O)(=O)c2ccc(F)c(Cl)c2)cc1)c1ccc(F)cc1,"inconclusive [cytotoxic, single point]",–
COc1ccc(CC(C)N2CCN(c3cccc(C(F)(F)F)c3)CC2)cc1OC (stereo unspecified),"inconclusive [cytotoxic, single point]",–

SMILES,Potency,"activity, negative = less viability"
Cc1ccc(C)c(N2CCN(C(=O)c3ccc4nsnc4c3)CC2)c1,active: 8.2 µM,–
Cc1ccc(C)c(NS(=O)(=O)c2cc(C(=O)Nc3ccccc3-c3ccccc3)ccc2C)c1,"inconclusive [cytotoxic, single point]",–
COc1ccc(S(=O)(=O)Nc2ccccc2-c2nc3ccccc3[nH]c2=O)cc1,"inconclusive [cytotoxic, partial curve, poor fit]",–
COc1cc2[nH]c(=O)n(CCCCCC(=O)NCCCN3CCCC3=O)c(=O)c2cc1OC,–,inactive: 1.82%
CCOc1ccc(NC(=O)C2CCC(CNc3c(N4CCC(C)CC4)c(=O)c3=O)CC2)cc1 (stereo unspecified),–,inactive: 5.98%
COc1ccc(CNC(=O)CN(Cc2ccc(OC)cc2)C(=O)CCC(=O)Nc2ccccn2)cc1,–,inactive: 2.45%
COc1ccc(CCCNC(=O)C2Cc3c(-c4cccc(C(C)=O)c4)ccnc3O2)cc1 (stereo unspecified),"inconclusive [cytotoxic, full curve]",–
CCOC(=O)CC(=O)CSc1nc2c(sc(=S)n2-c2ccc(C)c(C)c2)c(=O)[nH]1,–,inactive: -27.6%
O=C(CN(Cc1ccc(Cl)cc1)C(=O)c1csnn1)NCc1ccc(F)cc1,–,inactive: -16.8%
O=c1cc2c(c(-c3ccccc3)n1Cc1ccccc1)[C@@H](CCO)NC2,–,inactive: 0.732%
COc1ccccc1OCCNC(=O)CN1C(=O)NC2(CCCC2)C1=O,–,inactive: 16.9%
CCn1c(/N=C/c2ccccc2O)nc2ccccc21,–,inactive: -1.47%
COc1ccc(C(=O)/C(=C\c2ccco2)N2C=CC=CC2=C(C#N)C#N)cc1,"inconclusive [cytotoxic, full curve, poor fit]",–
CCn1ncc(/C=N\NC(=O)c2ccc3c(c2)c(C)c(C)n3Cc2ccccc2)c1C,"inconclusive [cytotoxic, partial curve]",–
Cc1ccc(/C=N/NC(=O)CSc2nnc(-c3ccc(Cl)cc3)n2-c2ccc(Cl)cc2)o1,active: 18.4 µM,–
COCCCN=C1NN=C(c2cc(C)n(Cc3ccccc3Cl)c2C)CS1,active: 4.61 µM,–
O=S(=O)(NCCSc1ccccn1)c1ccc(Br)cc1,–,inactive: -1.49%
CC1(CC(=O)N/N=C/c2cc(Br)c(O)cc2O)OCCO1,"inconclusive [cytotoxic, full curve]",–
CC(C)Oc1ccc(S(=O)(=O)N2CCOCC2)cc1NC(=O)Cc1c(F)cccc1Cl,–,inactive: 8.16%
O=[N+]([O-])c1cccc(S(=O)(=O)Nc2nc3ccccc3nc2Nc2cccc(S(=O)(=O)N3CCCCC3)c2)c1,"inconclusive [cytotoxic, full curve]",–
O=C(Nc1nc2ccccc2s1)c1cccc(S(=O)(=O)N2CCc3ccccc32)c1,"inconclusive [cytotoxic, single point]",–
OC(CCN1CCCCC1)c1ccc(-c2ccccc2)cc1 (stereo unspecified),"inconclusive [cytotoxic, single point]",–
Cc1cccc(NNC(=O)C(=O)NNc2cccc(C)c2)c1,"inconclusive [cytotoxic, partial curve, poor fit]",–
NC(=S)N/N=C/c1ccc(-c2cc(Cl)ccc2Cl)o1,active: 3.16 µM,–

SMILES,Potency,"activity, negative = less viability"
CC(=O)Nc1ccc(S(=O)(=O)N2CCN(c3nc(NC4CCCC4)c4ccccc4n3)CC2)cc1,active: 18.4 µM,–
CC(=O)NCCc1ccc(S(=O)(=O)Nc2ccc(NC(=O)c3ccc(F)cc3)cc2)cc1,"inconclusive [cytotoxic, single point]",–
Brc1cccc(-c2n[nH]c(-c3ccccc3)n2)c1,–,inactive: -6.3%
Cc1nc(N2CCC(C)CC2)c2c(C)c(C(=O)Nc3cccc(C(F)(F)F)c3)sc2n1,"inconclusive [cytotoxic, single point]",–
Cc1ccc(C(=O)N2CCN(Cc3ccc4c(c3)OCO4)CC2)c(Cl)c1,–,inactive: -10.4%
O=[N+]([O-])c1ccc(Oc2ccc(F)cc2)c2ccncc12,"inconclusive [cytotoxic, partial curve]",–
CC(C)CCOC(=O)C[N+](C)(C)CCOC1CC2CCC1(C)C2(C)C (stereo unspecified),"inconclusive [cytotoxic, single point]",–
CCCNC(=O)C1(C)CCCN(C(=O)c2ccc3ccccc3c2)C1 (stereo unspecified),"inconclusive [rising, single point]",–
Cc1ccc2[nH]c(O)c(N=Nc3nc4ccccc4s3)c2c1,–,inconclusive: -16.8% [cytotoxic]
COCCNC(=O)C1CCCN(Cc2ccccc2-c2ccccc2)CC1 (stereo unspecified),"inconclusive [rising, partial curve]",–
O=C(/C=C/c1ccc(Cl)cc1Cl)Nc1ccc(CN2CCOCC2)cc1,"inconclusive [cytotoxic, single point]",–
CCc1[nH]c(C(=O)O)c(C)c1C(=O)OC,–,inactive: 7.77%
Cc1csc2sc(-c3ccnc(SCC(=O)NCc4ccccc4)n3)c(C)c12,active: 3.26 µM,–
CCc1ccc2[nH]c(=O)c(CN(Cc3ccccc3OC)Cc3nnnn3Cc3ccco3)cc2c1,"inconclusive [cytotoxic, single point]",–
CC(C)Oc1ccc(F)cc1-c1cc(C(=O)NCc2ccc(C(F)(F)F)cc2)[nH]n1,"inconclusive [cytotoxic, single point]",–
CC1CCC/C=C/C(=O)c2c(O)cc(O)cc2CC(=O)O1 (stereo unspecified),active: 18.4 µM,–
CCCN(CCC)S(=O)(=O)c1ccc(C(=O)Nc2nnc(-c3cc(OC)cc(OC)c3)o2)cc1,–,inconclusive: -11.7% [cytotoxic]
CC1(C)CC(NC(=O)c2sc3cc(Cl)ccc3c2Cl)CC(C)(C)N1,active: 14.6 µM,–
N#C/C(=N\Nc1ccc(S(=O)(=O)N2CCCCC2)cc1)C(N)=S,"inconclusive [cytotoxic, partial curve]",–
Cc1ccc(-n2nc3c(N4CCC(C(=O)NCc5ccccc5C)CC4)nnc(C)c3c2C)cc1,active: 7.31 µM,–
N=c1sccn1CC(=O)Nc1cc(Cl)ccc1Oc1ccccc1,active: 16.4 µM,–
CCN1CCN(c2ccc(S(=O)(=O)N3CCCCC3)cc2NC(=O)/C=C/c2ccc(F)cc2)CC1,–,inactive: -3.68%
CC1CCN(C(=O)c2ccc3c(c2NCCO)C(=O)c2ccccc2C3=O)CC1,"inconclusive [cytotoxic, partial curve]",–
